The other results are listed elsewhere or left out.
Assays:
Test in all cases: glycan array binding signal (z-score within array); higher = stronger binding
Conditions in all cases: glycan notation: IUPAC condensed, linker removed
Neu5Ac(a2-3)Gal = biological target: Neu5Ac(a2-3)Gal
In short: (§1)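 The Consortium for Functional Glycomics database supplied 3228 glycan arrays, of which those lacking an available protein sequence were dropped. The binding signal, a within-array Z-score, was averaged across arrays of the same protein sequence and across linkers. Negative scores can be read as non-binding.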

[1] = biological target: Neu5Ac(a2-3)Gal(b1-3)GalNAc
In short: as §1

[2] = biological target: Neu5Ac(a2-3)Gal(b1-3)GalNAc(b1-3)Gal(a1-4)Gal(b1-4)Glc
In short: as §1

[3] = biological target: Neu5Ac(a2-3)Gal(b1-3)GalNAc(b1-4)[Neu5Ac(a2-3)]Gal(b1-4)Glc
In short: as §1

[4] = biological target: Neu5Ac(a2-3)Gal(b1-3)GalNAc(b1-4)[Neu5Ac(a2-8)Neu5Ac(a2-3)]Gal(b1-4)Glc
In short: as §1

[5] = biological target: Neu5Ac(a2-3)Gal(b1-3)GalNAc6S
In short: as §1

[6] = biological target: Neu5Ac(a2-3)Gal(b1-3)GlcNAc
In short: as §1

[7] = biological target: Neu5Ac(a2-3)Gal(b1-3)GlcNAc(b1-2)Man
In short: as §1

[8] = biological target: Neu5Ac(a2-3)Gal(b1-3)GlcNAc(b1-2)Man(a1-3)[GlcNAc(b1-4)][Neu5Ac(a2-3)Gal(b1-3)GlcNAc(b1-2)Man(a1-6)]Man(b1-4)GlcNAc(b1-4)GlcNAc
In short: as §1

[9] = biological target: Neu5Ac(a2-3)Gal(b1-3)GlcNAc(b1-2)Man(a1-3)[Neu5Ac(a2-3)Gal(b1-3)GlcNAc(b1-2)Man(a1-6)]Man(b1-4)GlcNAc(b1-4)GlcNAc
In short: as §1

[10] = biological target: Neu5Ac(a2-3)Gal(b1-3)GlcNAc(b1-3)Gal(b1-3)GlcNAc
In short: as §1

[11] = biological target: Neu5Ac(a2-3)Gal(b1-3)GlcNAc(b1-3)Gal(b1-4)GlcNAc
In short: as §1

[12] = biological target: Neu5Ac(a2-3)Gal(b1-3)GlcNAc(b1-3)GalNAc
In short: as §1

[13] = biological target: Neu5Ac(a2-3)Gal(b1-3)GlcNAc(b1-4)Gal(b1-4)Glc
In short: as §1

[14] = biological target: Neu5Ac(a2-3)Gal(b1-3)GlcNAc(b1-6)GalNAc
In short: as §1

[15] = biological target: Neu5Ac(a2-3)Gal(b1-3)GlcNAc6S
In short: as §1

[16] = biological target: Neu5Ac(a2-3)Gal(b1-3)[Fuc(a1-4)]GlcNAc
In short: as §1

[17] = biological target: Neu5Ac(a2-3)Gal(b1-3)[Fuc(a1-4)]GlcNAc(b1-3)Gal(b1-3)[Fuc(a1-4)]GlcNAc
In short: as §1

[18] = biological target: Neu5Ac(a2-3)Gal(b1-3)[Fuc(a1-4)]GlcNAc(b1-3)Gal(b1-4)[Fuc(a1-3)]GlcNAc
In short: as §1

[19] = biological target: Neu5Ac(a2-3)Gal(b1-3)[GlcNAc(b1-6)]GalNAc
In short: as §1

[20] = biological target: Neu5Ac(a2-3)Gal(b1-3)[Neu5Ac(a2-6)]GalNAc
In short: as §1

[21] = biological target: Neu5Ac(a2-3)Gal(b1-3)[Neu5Ac(a2-6)]GlcNAc(b1-3)[Fuc(a1-3)[Gal(b1-4)]GlcNAc(b1-6)]Gal(b1-4)Glc
In short: as §1

[22] = biological target: Neu5Ac(a2-3)Gal(b1-3)]Neu5Ac(a2-3)Gal(b1-4)]GlcNAc
In short: as §1

Neu5Ac(a2-3)Gal(b1-4)Glc = biological target: Neu5Ac(a2-3)Gal(b1-4)Glc
In short: as §1

[23] = biological target: Neu5Ac(a2-3)Gal(b1-4)GlcNAc
In short: as §1

[24] = biological target: Neu5Ac(a2-3)Gal(b1-4)GlcNAc(b1-2)Man
In short: as §1

[25] = biological target: Neu5Ac(a2-3)Gal(b1-4)GlcNAc(b1-2)Man(a1-3)[GlcNAc(b1-4)][Neu5Ac(a2-3)Gal(b1-4)GlcNAc(b1-2)Man(a1-6)]Man(b1-4)GlcNAc(b1-4)GlcNAc
In short: as §1

[26] = biological target: Neu5Ac(a2-3)Gal(b1-4)GlcNAc(b1-2)Man(a1-3)[Neu5Ac(a2-3)Gal(b1-4)GlcNAc(b1-2)Man(a1-6)]Man(b1-4)GlcNAc(b1-4)GlcNAc
In short: as §1

[27] = biological target: Neu5Ac(a2-3)Gal(b1-4)GlcNAc(b1-2)Man(a1-3)[Neu5Ac(a2-3)Gal(b1-4)GlcNAc(b1-2)Man(a1-6)]Man(b1-4)GlcNAc(b1-4)[Fuc(a1-6)]GlcNAc
In short: as §1

[28] = biological target: Neu5Ac(a2-3)Gal(b1-4)GlcNAc(b1-2)Man(a1-3)[Neu5Ac(a2-6)Gal(b1-4)GlcNAc(b1-2)Man(a1-6)]Man(b1-4)GlcNAc(b1-4)GlcNAc
In short: as §1

[29] = biological target: Neu5Ac(a2-3)Gal(b1-4)GlcNAc(b1-2)[Neu5Ac(a2-3)Gal(b1-4)GlcNAc(b1-4)]Man(a1-3)[GlcNAc(b1-4)][Neu5Ac(a2-3)Gal(b1-4)GlcNAc(b1-2)[Neu5Ac(a2-3)Gal(b1-4)GlcNAc(b1-6)]Man(a1-6)]Man(b1-4)GlcNAc(b1-4)GlcNAc
In short: as §1

[30] = biological target: Neu5Ac(a2-3)Gal(b1-4)GlcNAc(b1-2)[Neu5Ac(a2-3)Gal(b1-4)GlcNAc(b1-4)]Man(a1-3)[GlcNAc(b1-4)][Neu5Ac(a2-3)Gal(b1-4)GlcNAc(b1-4)Man(a1-6)]Man(b1-4)GlcNAc(b1-4)GlcNAc
In short: as §1

[31] = biological target: Neu5Ac(a2-3)Gal(b1-4)GlcNAc(b1-2)[Neu5Ac(a2-3)Gal(b1-4)GlcNAc(b1-6)]Man(a1-6)[Neu5Ac(a2-3)Gal(b1-4)GlcNAc(b1-2)Man(a1-3)]Man(b1-4)GlcNAc(b1-4)GlcNAc
In short: as §1

[32] = biological target: Neu5Ac(a2-3)Gal(b1-4)GlcNAc(b1-2)[Neu5Ac(a2-3)Gal(b1-4)GlcNAc(b1-6)]Man(a1-6)[Neu5Ac(a2-3)Gal(b1-4)GlcNAc(b1-2)Man(a1-3)][GlcNAc(b1-4)]Man(b1-4)GlcNAc(b1-4)GlcNAc
In short: as §1

[33] = biological target: Neu5Ac(a2-3)Gal(b1-4)GlcNAc(b1-3)Gal
In short: as §1

[34] = biological target: Neu5Ac(a2-3)Gal(b1-4)GlcNAc(b1-3)Gal(b1-3)GlcNAc
In short: as §1

[35] = biological target: Neu5Ac(a2-3)Gal(b1-4)GlcNAc(b1-3)Gal(b1-4)GlcNAc
In short: as §1

[36] = biological target: Neu5Ac(a2-3)Gal(b1-4)GlcNAc(b1-3)Gal(b1-4)GlcNAc(b1-2)Man(a1-3)[Neu5Ac(a2-3)Gal(b1-4)GlcNAc(b1-3)Gal(b1-4)GlcNAc(b1-2)Man(a1-6)]Man(b1-4)GlcNAc(b1-4)GlcNAc
In short: as §1

[37] = biological target: Neu5Ac(a2-3)Gal(b1-4)GlcNAc(b1-3)Gal(b1-4)GlcNAc(b1-3)Gal(b1-4)GlcNAc
In short: as §1

[38] = biological target: Neu5Ac(a2-3)Gal(b1-4)GlcNAc(b1-3)Gal(b1-4)GlcNAc(b1-3)Gal(b1-4)GlcNAc(b1-2)Man(a1-3)[Neu5Ac(a2-3)Gal(b1-4)GlcNAc(b1-3)Gal(b1-4)GlcNAc(b1-3)Gal(b1-4)GlcNAc(b1-2)Man(a1-6)]GalNAc
In short: as §1

[39] = biological target: Neu5Ac(a2-3)Gal(b1-4)GlcNAc(b1-3)Gal(b1-4)GlcNAc(b1-3)GalNAc
In short: as §1

[40] = biological target: Neu5Ac(a2-3)Gal(b1-4)GlcNAc(b1-3)Gal(b1-4)GlcNAc(b1-3)[Neu5Ac(a2-3)Gal(b1-4)GlcNAc(b1-3)Gal(b1-4)GlcNAc(b1-6)]GalNAc
In short: as §1

[41] = biological target: Neu5Ac(a2-3)Gal(b1-4)GlcNAc(b1-3)Gal(b1-4)GlcNAc(b1-6)[Gal(b1-3)]GalNAc
In short: as §1

[42] = biological target: Neu5Ac(a2-3)Gal(b1-4)GlcNAc(b1-3)Gal(b1-4)[Fuc(a1-3)]GlcNAc
In short: as §1

[43] = biological target: Neu5Ac(a2-3)Gal(b1-4)GlcNAc(b1-3)GalNAc
In short: as §1

B1: NKR-PIC (Mus musculus) (protein)
chain: GTGQKPSREKCCVFIQENLNKTTDCSVNLECPQDWLLHRDKCFHVSQVSNTWEEGQADCGRKGATLLLIQDQEELRFLLDSIKEKYNSFWIGLRFTLPDMNWKWINGTTFNSDVLKITGVTENGSCASILGDKVTPESCASDNRWICQKELNHETPSNDSGT
glycan array binding signal (z-score) (Neu5Ac(a2-3)Gal): -0.358
glycan array binding signal (z-score) [1]: -0.34
glycan array binding signal (z-score) [2]: -0.281
glycan array binding signal (z-score) [3]: -0.3
glycan array binding signal (z-score) [4]: -0.336
glycan array binding signal (z-score) [5]: -0.375
glycan array binding signal (z-score) [6]: -0.301
glycan array binding signal (z-score) [7]: -0.317
glycan array binding signal (z-score) [8]: -0.369
glycan array binding signal (z-score) [9]: -0.39
glycan array binding signal (z-score) [10]: -0.343
glycan array binding signal (z-score) [11]: 0.067
glycan array binding signal (z-score) [12]: -0.295
glycan array binding signal (z-score) [13]: -0.365
glycan array binding signal (z-score) [14]: -0.359
glycan array binding signal (z-score) [15]: -0.243
glycan array binding signal (z-score) [16]: -0.289
glycan array binding signal (z-score) [17]: -0.319
glycan array binding signal (z-score) [18]: -0.258
glycan array binding signal (z-score) [19]: -0.305
glycan array binding signal (z-score) [20]: -0.322
glycan array binding signal (z-score) [21]: -0.396
glycan array binding signal (z-score) [22]: -0.326
glycan array binding signal (z-score) (Neu5Ac(a2-3)Gal(b1-4)Glc): -0.35
glycan array binding signal (z-score) [23]: -0.12
glycan array binding signal (z-score) [24]: -0.253
glycan array binding signal (z-score) [25]: 1.11
glycan array binding signal (z-score) [26]: -0.102
glycan array binding signal (z-score) [27]: -0.155
glycan array binding signal (z-score) [28]: -0.221
glycan array binding signal (z-score) [29]: -0.358
glycan array binding signal (z-score) [30]: -0.296
glycan array binding signal (z-score) [31]: -0.256
glycan array binding signal (z-score) [32]: 0.806
glycan array binding signal (z-score) [33]: -0.363
glycan array binding signal (z-score) [34]: -0.338
glycan array binding signal (z-score) [35]: -0.189
glycan array binding signal (z-score) [36]: -0.258
glycan array binding signal (z-score) [37]: 0.344
glycan array binding signal (z-score) [38]: -0.223
glycan array binding signal (z-score) [39]: -0.354
glycan array binding signal (z-score) [40]: -0.348
glycan array binding signal (z-score) [41]: -0.354
glycan array binding signal (z-score) [42]: -0.401
glycan array binding signal (z-score) [43]: -0.331

— the supplement of paper PMC8728848
